Laboratory results published in PMC4242493.
The list shows a part of the results. The list includes weakly bound sequences.

molecular target: MaxL homodimer (UniProt P61244); assay: universal protein-binding microarray (PBM); conditions: PBS-based mixture, 10 nM His-tagged protein dimer, 2% milk, 200 ng/uL BSA, 50 ng/uL salmon testes DNA, 0.02% TX-100; detection with Alexa 488 anti-His …; high values mean tight binding; most listed sequences are background and not binding sites; double strand, one strand shown
UniProt P61244, sequence (P61244 whole entry): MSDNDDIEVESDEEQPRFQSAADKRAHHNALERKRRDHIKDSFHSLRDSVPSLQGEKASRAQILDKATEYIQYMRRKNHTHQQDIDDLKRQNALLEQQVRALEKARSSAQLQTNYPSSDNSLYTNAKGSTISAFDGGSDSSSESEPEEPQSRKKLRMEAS

Sequence	binding signal (normalized occupancy)
AGCACACT	0.0815
ATCGTTAA	0.0796
GCAACCGA	0.0694
ATGAGGCC	0.0811
CGTTAACC	0.0793
GCGAAATA	0.0711
ACACATCC	0.0784
CTAATTAG	0.0738
CTAAGGCA	0.0699
AGCGAAGA	0.0653
GAAGCGCA	0.062
CACGCTAC	0.0972
CCCCGAAA	0.0755
ACAGATAC	0.0793
ATTATGCC	0.0763
GCTGCCCC	0.0738
ATGACACA	0.0829
GCGGTTGA	0.0699
AACTCAGA	0.0759
AACCGACT	0.0658
CGGAACAC	0.0775
CGGGTGTA	0.079
ACTCATTG	0.0811
GGTGAGTA	0.0795
GCTCATGA	0.0859

Sequence	binding signal (normalized occupancy)
AACAACGC	0.0747
GATTTCAC	0.0722
AAAAACTC	0.0696
ATGGTGTA	0.0823
GACAGTCA	0.0721
CCGTTTAG	0.0717
CGCTGGAG	0.0679
AGTCTTTC	0.07
ACATCGGT	0.0702
CAGGGCTC	0.069
GGCGGATA	0.0736
GGGGCGTA	0.0761
TAGCTTGA	0.0684
CCACTGCC	0.073
CCGAATGA	0.0745
GTAGGCGA	0.0743
CTCGCCTC	0.0748
AGCAAGAA	0.0748
ATATGAAA	0.0805
AGCGCTCC	0.0661
AGGGTTAA	0.0772
CCGCAGTA	0.0693
TCAAAGGA	0.0841
TGGGGGAA	0.0784
ACGACATC	0.078

Sequence	binding signal (normalized occupancy)
ACCCGTCG	0.0731
ACAGATCA	0.0837
GTACAAGA	0.0806
ATATGATA	0.0913
ACACTAGC	0.0744
CGTCTGGC	0.0669
GGGGAAGA	0.0844
GTAAATTA	0.0804
AATTGCTC	0.0686
CTTATCTC	0.0761
GACAGATC	0.0746
ATCCAGAC	0.073
TCCCAAAA	0.0719
GAGGCGGA	0.0677
CTTGATCA	0.0784
GACCTGCC	0.0741
AGAAACTA	0.0746
TGAAGGAA	0.0747
ATTACTCA	0.0751
CGCGGATA	0.0752
ACACCGAC	0.0774
GCAGGTGA	0.0851
CCTCCTAG	0.076
AAGTCAGG	0.0719
CCAAGCTC	0.0702

Sequence	binding signal (normalized occupancy)
CTTGTCAC	0.0759
TATGAGCA	0.0821
AGTGATAT	0.0824
CGAAGTGA	0.0702
ACACGTGG	0.852
AATAGCCT	0.0775
AAGTGCAG	0.0763
GGTAGAAC	0.071
GCGACTAA	0.0635
ACGGCTAT	0.0724
ATAAGGGA	0.0753
AACTTGCT	0.074
AGGGTAGC	0.0747
ATGGAGCC	0.0767
CTGTAGAC	0.0726
GACAACCC	0.076
CAGTCTCA	0.0706
CCTATCCA	0.0806
CTGGGCTA	0.0669
AAAGAAGC	0.0715
AGTAGCCA	0.0714
CAACATGA	0.0936
AGCTGCGA	0.066
ATATAATC	0.0793
CTGACAGA	0.072

Sequence	binding signal (normalized occupancy)
GGGGAGAC	0.0733
CCGACAGC	0.0716
AAATGTTA	0.0782
CTTCCACC	0.0766
CGTACACA	0.0813
ATCTTGTC	0.0785
GACCCCGC	0.0742
GAAGCGCC	0.0668
ATTTTAGA	0.0828
GGTAGCGA	0.0736
AAAGTTCT	0.0721
CATTGGCC	0.0721
ACGATGTG	0.0859
GTTTCAGA	0.071
ACGCAAAG	0.0808
CGGTAAAC	0.076
CGGCCGCC	0.0686
AAGAGCCA	0.0768
CATTCTCC	0.0814
ATTCCATG	0.0878
CGAACACC	0.0747
CATGTGAG	0.128
ACGCCAGG	0.0747
TCTCCCCA	0.0783
GTTTTTCA	0.0726

Sequence	binding signal (normalized occupancy)
ACGGTCAG	0.073
GCGCTGTA	0.077
GAGGCACA	0.0779
AGATCGCG	0.0698
ATTTAGAC	0.0724
GCTGTGGA	0.0728
CAAGTTCA	0.0741
TCCCGTCA	0.0716
CGTTGGGA	0.0779
GGTCTCAA	0.0745
CAATAACA	0.0785
AAACGCGT	0.08
CGCTAAAG	0.0673
AGTAGTGA	0.0756
ATCGTGAA	0.0769
GAGTTTCA	0.0703
CGCATCCA	0.077
GCATTAGC	0.0727
AATGTAAG	0.0879
CACGGAGG	0.0714
ATCATAAC	0.0857
CATCCTTA	0.0814
AGTCAACA	0.0779
TCCACGAA	0.0784
TAAAGTTA	0.0709

Sequence	binding signal (normalized occupancy)
CCAATTCA	0.0744
TAAAATTA	0.069
CGCGCCAA	0.0707
CATGACCC	0.0876
TAGTTTCA	0.074
ACGGGTCA	0.0744
ACTCTGGA	0.0708
AATTGGTG	0.075
CATCAGCA	0.0809
CGCGCTGC	0.0805
CATTGAAA	0.0742
AACGAATA	0.0759
AAATAAAT	0.0721
GCTCTCAA	0.0735
GGAGTCGA	0.0715
ACATGGAG	0.0868
CACGGACC	0.0751
AGGTGAGG	0.0742
GGCATTAA	0.0712
GCAAGTGC	0.0726
ATCCTGGC	0.0676
CTTTAATA	0.0772
GGCGAACC	0.0697
GAAGGATC	0.0758
GGCCCTCA	0.0741

Sequence	binding signal (normalized occupancy)
AAGGTGGC	0.0758
ACTATTAA	0.0742
CTGGATCC	0.0727
ATCCGGTC	0.072
CCTTATCC	0.0692
AAGTTTTC	0.0668
ATAAGGAC	0.075
ACTTAAAA	0.0709
AGCTGAAA	0.0723
ATCTATTG	0.078
GAGTACTA	0.074
AATACAAA	0.0785
AACCTCTG	0.0733
GCCGGCCA	0.0695
AGTGGATG	0.0806
AGGGCATC	0.0776
CGCGCTAC	0.0819
AGTGGACA	0.0832
TAAGAAGA	0.073
CGAGTTAG	0.0768
TCAAATGA	0.0748
AGACCTTG	0.0706
ATGATGAC	0.0815
AGCCCTGA	0.0699
ACCCCATA	0.0838

Sequence	binding signal (normalized occupancy)
CGCGTCCC	0.0699
GATAGCCA	0.0696
CGCTATTA	0.075
CCGCATAC	0.0794
ACTAACGG	0.072
TCTAGGCA	0.0711
AAGGCAGA	0.0759
ACCTGAGG	0.0673
CAGCGCCA	0.0711
GCAATTGC	0.0705
ACGTCCAG	0.0714
AACGGGTA	0.0795
CCACTTCG	0.0732
CTGTGGCA	0.0739
CGTACAAA	0.0748
AGAATGCG	0.0783
CGTCATCA	0.0822
AGCAATCC	0.0708
AGGTCTAC	0.0715
